Measured values: the supplement of paper PMC4604168 (melanoma cell lines)
The other results are listed elsewhere or left out. Most values come without repeats; read them as rough.

Key:
Test in all cases: cell count relative to DMSO control; melanoma cells; higher = more viable cells
Details in all cases: library dose: low library concentration; 72 h
[1] = test system: MZ2-MEL
[2] = test system: MeWo
[3] = test system: RPMI7951
[4] = test system: RVH-421
[5] = test system: SkMel28
[6] = test system: SkMel2
[7] = test system: SkMel30
[8] = test system: SkMel5
[9] = test system: UACC257
[10] = test system: UACC62
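Further: cell number obtained by counting DAPI-stained nuclei in high-throughput microscope images with image analysis software, screen run in 1,536-well plates.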

Structure (SMILES): CNC(=O)c1cc(Oc2ccc(NC(=O)Nc3ccc(Cl)c(C(F)(F)F)c3)cc2)ccn1 [sorafenib] + O=C(Nc1cccc(Cl)c1)Nc1ncc(CCNc2ncnc3ccsc23)s1 [SNS314] (first compound 0.4 µM, partner dose 0.0008 µM)
- cell count [1]: 93.4%
- cell count [2]: 91.1%
- cell count [3]: 97.9%
- cell count [4]: 79.6%
- cell count [5]: 88.7%
- cell count [6]: 98.9%
- cell count [7]: 104%
- cell count [8]: 87.2%
- cell count [9]: 77.2%
- cell count [10]: 91.2%

Structure (SMILES): CS(=O)(=O)CCNCc1ccc(-c2ccc3ncnc(Nc4ccc(OCc5cccc(F)c5)c(Cl)c4)c3c2)o1 [lapatinib] + C[C@@H]1CCN(C(=O)CC#N)C[C@@H]1N(C)c1ncnc2[nH]ccc12 [CP690550] (first compound 0.8 µM, partner dose 1 µM)
- cell count [1]: 98.8%
- cell count [2]: 97.4%
- cell count [3]: 96.3%
- cell count [4]: 97%
- cell count [5]: 105%
- cell count [6]: 98.6%
- cell count [7]: 104%
- cell count [8]: 98%
- cell count [9]: 101%
- cell count [10]: 113%

Structure (SMILES): C[C@@H](Oc1cc(-c2cnn(C3CCNCC3)c2)cnc1N)c1c(Cl)ccc(F)c1Cl [Crizotinib] + C[C@@H]1CCN(C(=O)CC#N)C[C@@H]1N(C)c1ncnc2[nH]ccc12 [CP690550] (first compound 0.2 µM, partner dose 1 µM)
- cell count [1]: 108%
- cell count [2]: 109%
- cell count [3]: 105%
- cell count [4]: 87.8%
- cell count [5]: 106%
- cell count [6]: 95.8%
- cell count [7]: 117%
- cell count [8]: 117%
- cell count [9]: 94.4%
- cell count [10]: 97%

Structure (SMILES): CN1CCN(c2ccc3nc(-c4c(N)c5c(F)cccc5[nH]c4=O)[nH]c3c2)CC1 [Dovitinib] + COc1cc2ncnc(Nc3ccc(Oc4ccccc4)cc3)c2cc1OC [SrcI1] (first compound 0.1 µM, partner dose 2 µM)
- cell count [1]: 95%
- cell count [2]: 89.6%
- cell count [3]: 117%
- cell count [4]: 112%
- cell count [5]: 102%
- cell count [6]: 112%
- cell count [7]: 103%
- cell count [8]: 87.2%
- cell count [9]: 115%
- cell count [10]: 102%

Structure (SMILES): CN1CCN(c2ccc3nc(-c4c(N)c5c(F)cccc5[nH]c4=O)[nH]c3c2)CC1 [Dovitinib] + COC(=O)c1sccc1S(=O)(=O)Nc1ccc(Nc2ccccc2)cc1OC [GSK0660] (first compound 0.1 µM, partner dose 1 µM)
- cell count [1]: 97.6%
- cell count [2]: 103%
- cell count [3]: 96%
- cell count [4]: 98.3%
- cell count [5]: 89%
- cell count [6]: 97.9%
- cell count [7]: 80.4%
- cell count [8]: 95.4%
- cell count [9]: 89.2%
- cell count [10]: 89.1%

Structure (SMILES): CN1CCN(c2ccc3nc(-c4c(N)c5c(F)cccc5[nH]c4=O)[nH]c3c2)CC1 [Dovitinib] + CCCCCCCCCCCC1=C(O)C(=O)C=C(O)C1=O [Embelin] (first compound 0.1 µM, partner dose 1.2 µM)
- cell count [1]: 92.7%
- cell count [2]: 97.6%
- cell count [3]: 96.4%
- cell count [4]: 90.8%
- cell count [5]: 86%
- cell count [6]: 99.7%
- cell count [7]: 89.4%
- cell count [8]: 91.5%
- cell count [9]: 92.4%
- cell count [10]: 84%

Structure (SMILES): C[C@@H](Oc1cc(-c2cnn(C3CCNCC3)c2)cnc1N)c1c(Cl)ccc(F)c1Cl [Crizotinib] + Cc1ccc(NC(=O)c2cccc(N(C)C)c2)cc1NC(=O)c1ccc(O)cc1 [ZM336372] (first compound 0.2 µM, partner dose 2 µM)
- cell count [1]: 77.4%
- cell count [2]: 97%
- cell count [3]: 101%
- cell count [4]: 87.7%
- cell count [5]: 95.2%
- cell count [6]: 104%
- cell count [7]: 85.6%
- cell count [8]: 81.1%
- cell count [9]: 101%
- cell count [10]: 82.9%

Structure (SMILES): CS(=O)(=O)CCNCc1ccc(-c2ccc3ncnc(Nc4ccc(OCc5cccc(F)c5)c(Cl)c4)c3c2)o1 [lapatinib] + O=C1NC(=O)/C(=C/c2ccc(-c3ccc(F)cc3O)o2)S1 [AS252424] (first compound 0.8 µM, partner dose 1 µM)
- cell count [1]: 97%
- cell count [2]: 99.7%
- cell count [3]: 94.5%
- cell count [4]: 99.1%
- cell count [5]: 108%
- cell count [6]: 88.3%
- cell count [7]: 103%
- cell count [8]: 102%
- cell count [9]: 78.4%
- cell count [10]: 102%

Structure (SMILES): CNC(=O)c1cc(Oc2ccc(NC(=O)Nc3ccc(Cl)c(C(F)(F)F)c3)cc2)ccn1 [sorafenib] + CC(C)(C)c1cnc(CSc2cnc(NC(=O)C3CCNCC3)s2)o1 [SNS-032] (first compound 0.4 µM, partner dose 0.01 µM)
- cell count [1]: 102%
- cell count [2]: 96.5%
- cell count [3]: 63.1%
- cell count [4]: 83.4%
- cell count [5]: 96.2%
- cell count [6]: 96.4%
- cell count [7]: 101%
- cell count [8]: 100%
- cell count [9]: 104%
- cell count [10]: 82.1%

Structure (SMILES): C=CCNC1=C2C[C@@H](C)C[C@H](OC)[C@H](O)[C@@H](C)/C=C(\C)[C@H](OC(N)=O)[C@@H](OC)/C=C\C=C(/C)C(=O)NC(=CC1=O)C2=O [Tanespimycin] + O=C1NC(=O)/C(=C/c2ccc(-c3ccc(F)cc3O)o2)S1 [AS252424] (first compound 0.002 µM, partner dose 1 µM)
- cell count [1]: 103%
- cell count [2]: 116%
- cell count [3]: 96.6%
- cell count [4]: 89.6%
- cell count [5]: 108%
- cell count [6]: 99.1%
- cell count [7]: 85.9%
- cell count [8]: 96.5%
- cell count [9]: 108%
- cell count [10]: 108%

Structure (SMILES): CS(=O)(=O)CCNCc1ccc(-c2ccc3ncnc(Nc4ccc(OCc5cccc(F)c5)c(Cl)c4)c3c2)o1 [lapatinib] + CN(NC(=O)CC(=O)NN(C)C(=S)c1ccccc1)C(=S)c1ccccc1 [STA4783] (first compound 0.8 µM, partner dose 0.006 µM)
- cell count [1]: 107%
- cell count [2]: 88.2%
- cell count [3]: 106%
- cell count [4]: 71.9%
- cell count [5]: 112%
- cell count [6]: 75.4%
- cell count [7]: 98%
- cell count [8]: 94.3%
- cell count [9]: 73.4%
- cell count [10]: 89.4%

Structure (SMILES): CS(=O)(=O)CCNCc1ccc(-c2ccc3ncnc(Nc4ccc(OCc5cccc(F)c5)c(Cl)c4)c3c2)o1 [lapatinib] + O=C(Nc1ccccc1)c1cc([N+](=O)[O-])ccc1Cl [GW9662] (first compound 0.8 µM, partner dose 2 µM)
- cell count [1]: 86%
- cell count [2]: 90.3%
- cell count [3]: 105%
- cell count [4]: 103%
- cell count [5]: 103%
- cell count [6]: 99.8%
- cell count [7]: 97.9%
- cell count [8]: 99.2%
- cell count [9]: 101%
- cell count [10]: 101%

Structure (SMILES): CN1CCN(c2ccc3nc(-c4c(N)c5c(F)cccc5[nH]c4=O)[nH]c3c2)CC1 [Dovitinib] + CC1(C)NC(=O)N(c2ccc([N+](=O)[O-])c(C(F)(F)F)c2)C1=O [nilutamide] (first compound 0.1 µM, partner dose 1 µM)
- cell count [1]: 94.1%
- cell count [2]: 97.5%
- cell count [3]: 125%
- cell count [4]: 98.2%
- cell count [5]: 89.7%
- cell count [6]: 109%
- cell count [7]: 77%
- cell count [8]: 92.6%
- cell count [9]: 96.4%
- cell count [10]: 93.2%

Structure (SMILES): CS(=O)(=O)CCNCc1ccc(-c2ccc3ncnc(Nc4ccc(OCc5cccc(F)c5)c(Cl)c4)c3c2)o1 [lapatinib] + CC(C)(C)c1cnc(CSc2cnc(NC(=O)C3CCNCC3)s2)o1 [SNS-032] (first compound 0.8 µM, partner dose 0.01 µM)
- cell count [1]: 113%
- cell count [2]: 99.5%
- cell count [3]: 94.8%
- cell count [4]: 90.3%
- cell count [5]: 97.5%
- cell count [6]: 92.6%
- cell count [7]: 139%
- cell count [8]: 110%
- cell count [9]: 97.6%
- cell count [10]: 90.7%

Structure (SMILES): CN1CCN(c2ccc3nc(-c4c(N)c5c(F)cccc5[nH]c4=O)[nH]c3c2)CC1 [Dovitinib] + CN(NC(=O)CC(=O)NN(C)C(=S)c1ccccc1)C(=S)c1ccccc1 [STA4783] (first compound 0.1 µM, partner dose 0.006 µM)
- cell count [1]: 101%
- cell count [2]: 96.7%
- cell count [3]: 109%
- cell count [4]: 92.3%
- cell count [5]: 94.3%
- cell count [6]: 110%
- cell count [7]: 67.9%
- cell count [8]: 96.4%
- cell count [9]: 114%
- cell count [10]: 96.2%

Structure (SMILES): CS(=O)(=O)CCNCc1ccc(-c2ccc3ncnc(Nc4ccc(OCc5cccc(F)c5)c(Cl)c4)c3c2)o1 [lapatinib] + O=C(Nc1cccc(Cl)c1)Nc1ncc(CCNc2ncnc3ccsc23)s1 [SNS314] (first compound 0.8 µM, partner dose 0.0008 µM)
- cell count [1]: 100%
- cell count [2]: 95.7%
- cell count [3]: 74.3%
- cell count [4]: 93.8%
- cell count [5]: 88.4%
- cell count [6]: 106%
- cell count [7]: 92.9%
- cell count [8]: 97.8%
- cell count [9]: 81%
- cell count [10]: 104%

Structure (SMILES): C[C@@H](Oc1cc(-c2cnn(C3CCNCC3)c2)cnc1N)c1c(Cl)ccc(F)c1Cl [Crizotinib] + CN(C)S(=O)(=O)c1ccc2c(c1)/C(=C/c1cc3c([nH]1)CCCC3)C(=O)N2 [SU6656] (first compound 0.2 µM, partner dose 0.4 µM)
- cell count [1]: 105%
- cell count [2]: 80.3%
- cell count [3]: 100%
- cell count [4]: 102%
- cell count [5]: 79.1%
- cell count [6]: 102%
- cell count [7]: 93.5%
- cell count [8]: 87.2%
- cell count [9]: 87.7%
- cell count [10]: 85.6%

Structure (SMILES): C=CCNC1=C2C[C@@H](C)C[C@H](OC)[C@H](O)[C@@H](C)/C=C(\C)[C@H](OC(N)=O)[C@@H](OC)/C=C\C=C(/C)C(=O)NC(=CC1=O)C2=O [Tanespimycin] + COC(=O)c1sccc1S(=O)(=O)Nc1ccc(Nc2ccccc2)cc1OC [GSK0660] (first compound 0.002 µM, partner dose 1 µM)
- cell count [1]: 98.6%
- cell count [2]: 112%
- cell count [3]: 91.9%
- cell count [4]: 131%
- cell count [5]: 105%
- cell count [6]: 92.6%
- cell count [7]: 95.9%
- cell count [8]: 89.6%
- cell count [9]: 102%
- cell count [10]: 89.4%

Structure (SMILES): C=CCNC1=C2C[C@@H](C)C[C@H](OC)[C@H](O)[C@@H](C)/C=C(\C)[C@H](OC(N)=O)[C@@H](OC)/C=C\C=C(/C)C(=O)NC(=CC1=O)C2=O [Tanespimycin] + Cc1ccc(NC(=O)c2cccc(N(C)C)c2)cc1NC(=O)c1ccc(O)cc1 [ZM336372] (first compound 0.002 µM, partner dose 2 µM)
- cell count [1]: 77.5%
- cell count [2]: 112%
- cell count [3]: 92.9%
- cell count [4]: 107%
- cell count [5]: 99.5%
- cell count [6]: 110%
- cell count [7]: 96.2%
- cell count [8]: 105%
- cell count [9]: 103%
- cell count [10]: 96.6%

Structure (SMILES): C=CCNC1=C2C[C@@H](C)C[C@H](OC)[C@H](O)[C@@H](C)/C=C(\C)[C@H](OC(N)=O)[C@@H](OC)/C=C\C=C(/C)C(=O)NC(=CC1=O)C2=O [Tanespimycin] + CN(NC(=O)CC(=O)NN(C)C(=S)c1ccccc1)C(=S)c1ccccc1 [STA4783] (first compound 0.002 µM, partner dose 0.006 µM)
- cell count [1]: 103%
- cell count [2]: 93.5%
- cell count [3]: 107%
- cell count [4]: 101%
- cell count [5]: 98.8%
- cell count [6]: 95.5%
- cell count [7]: 105%
- cell count [8]: 83.1%
- cell count [9]: 82.3%
- cell count [10]: 91.7%

Structure (SMILES): CN1CCN(c2ccc3nc(-c4c(N)c5c(F)cccc5[nH]c4=O)[nH]c3c2)CC1 [Dovitinib] + O=C(Nc1ccccc1)c1cc([N+](=O)[O-])ccc1Cl [GW9662] (first compound 0.1 µM, partner dose 2 µM)
- cell count [1]: 99.5%
- cell count [2]: 94.1%
- cell count [3]: 89.7%
- cell count [4]: 122%
- cell count [5]: 102%
- cell count [6]: 112%
- cell count [7]: 81.4%
- cell count [8]: 110%
- cell count [9]: 84.9%
- cell count [10]: 94.3%
